B1: AK668 (Fc fusion)
chain 1: [human IgG1 Fc with changes left out here]GGSPGKIDACKRGDVTVKPSHVILLGSTVNITCSLKPRQGCFHYSRRNKLILYKFDRRINFHHGHSLNSQVTGLPLGTTLFVCKLACINSDEIQICGAEIFVGVAPEQPQNLSCIQKGEQGTVACTWERGRDTHLYTEYTLQLSGPKNLTWQKQCKDIYCDYLDFGINLTPESPESNFTAKVTAVNSLGSSSSLPSTFTFLDIVRPLPPWDIRIKFQKASVSRSTLYWRDEGLVLLNRLRYRPSNSRLWNMVNVTKAKGRHDLLDLKPFTEYEFQISSKLHLYKGSWSDWSESLRAQTPEE
chain 2: DKTHTCPPCPAPELLGGPSVFLFPPKPKDTLMISRTPEVTCVVVDVSHEDPEVKFNWYVDGVEVHNAKTKPREEQYASTYRVVSVLTVLHQDWLNGKEYKCKVSNKALPAPIEKTISKAKGQPREPQVYTLPPCRDELTKNQVSLWCLVKGFYPSDIAVEWESNGQPENNYKTTPPVLDSDGSFFLYSKLTVDKSRWQQGNVFSCSVMHEALHNHYTQKSLSLSPGGGSGGSGGSMPYDLYHPSGPIWELKKDVYVVELDWYPDAPGEMVVLTCDTPEEDGITWTLDQSSEVLGSGKTLTIQVKEFGDAGQYTCHKGGEVLSHSLLLLHKKEDGIWSTDILKDQKEPKNKTFLRCEAKNYSGRFTCWWLTTISTDLTFSVKSSRGSSDPQGVTCGAATLSAERVRGDNKEYEYSVECQEDSACPAAEESLPIEVMVDAVHKLKYENYTSSFFIRDIIKPDPPKNLQLKPLKNSRQVEVSWEYPDTWSTPHSYFSLTFSVQVQGKDNTEGRVFTDKTSATVICRKNASISVRAQDRYYSSSWSEWASVPCSGGGGSGGGGSGGGGSRNLPVATPDPGMFPCLHHSQNLLRAVSNMLQKARQTLEFYPCTSEEIDHEDITKDKTSTVEACLPLELTKNESCLNSRETSFITNGSCLASRKTSFMMALCLSSIYEDLKMYQVEFKTMNAKLLMDPKRQIFLDQNMLAVIDELMQALNFNSETVPQKSSLEEPDFYKTKIKLCILLHAFRIRAVTIDRVMSYLNAS
B2: AK670 (Fc fusion)
chain 1: [human IgG1 Fc with changes left out here]GGSPGKIDACKRGDVTVKPSHVILLGSTVNITCSLKPRQGCFHYSRRNKLILYKFDRRINFHHGHSLNSQVTGLPLGTTLFVCKLACINSDEIQICGAEIFVGVAPEQPQNLSCIQKGEQGTVACTWERGRDTHLYTEYTLQLSGPKNLTWQKQCKDIYCDYLDFGINLTPESPESNFTAKVTAVNSLGSSSSLPSTFTFLDIVRPLPPWDIRIKFQKASVSRSTLYWRDEGLVLLNRLRYRPSNSRLWNMVNVTKAKGRHDLLDLKPFTEYEFQISSKLHLYKGSWSDWSESLRAQTPEE
chain 2: DKTHTCPPCPAPELLGGPSVFLFPPKPKDTLMISRTPEVTCVVVDVSHEDPEVKFNWYVDGVEVHNAKTKPREEQYASTYRVVSVLTVLHQDWLNGKEYKCKVSNKALPAPIEKTISKAKGQPREPQVYTLPPCRDELTKNQVSLWCLVKGFYPSDIAVEWESNGQPENNYKTTPPVLDSDGSFFLYSKLTVDKSRWQQGNVFSCSVMHEALHNHYTQKSLSLSPGGGSGGSGGSISSGLLSGRSSGPIWELKKDVYVVELDWYPDAPGEMVVLTCDTPEEDGITWTLDQSSEVLGSGKTLTIQVKEFGDAGQYTCHKGGEVLSHSLLLLHKKEDGIWSTDILKDQKEPKNKTFLRCEAKNYSGRFTCWWLTTISTDLTFSVKSSRGSSDPQGVTCGAATLSAERVRGDNKEYEYSVECQEDSACPAAEESLPIEVMVDAVHKLKYENYTSSFFIRDIIKPDPPKNLQLKPLKNSRQVEVSWEYPDTWSTPHSYFSLTFSVQVQGKDNTEGRVFTDKTSATVICRKNASISVRAQDRYYSSSWSEWASVPCSGGGGSGGGGSGGGGSRNLPVATPDPGMFPCLHHSQNLLRAVSNMLQKARQTLEFYPCTSEEIDHEDITKDKTSTVEACLPLELTKNESCLNSRETSFITNGSCLASRKTSFMMALCLSSIYEDLKMYQVEFKTMNAKLLMDPKRQIFLDQNMLAVIDELMQALNFNSETVPQKSSLEEPDFYKTKIKLCILLHAFRIRAVTIDRVMSYLNAS
B3: AK922 (Fc fusion)
chain 1: [human IgG1 Fc with changes left out here]GGSGGGSGKIDACKRGDVTVKPSHVILLGSTVNITCSLKPRQGCFHYSRRNKLILYKFDRRINFHHGHSLNSQVTGLPLGTTLFVCKLACINSDEIQICGAEIFVGVAPEQPQNLSCIQKGEQGTVACTWERGRDTHLYTEYTLQLSGPKNLTWQKQCKDIYCDYLDFGINLTPESPESNFTAKVTAVNSLGSSSSLPSTFTFLDIVRPLPPWDIRIKFQKASVSRSTLYWRDEGLVLLNRLRYRPSNSRLWNMVNVTKAKGRHDLLDLKPFTEYEFQISSKLHLYKGSWSDWSESLRAQTPEE
chain 2: DKTHTCPPCPAPELLGGPSVFLFPPKPKDTLMISRTPEVTCVVVDVSHEDPEVKFNWYVDGVEVHNAKTKPREEQYASTYRVVSVLTVLHQDWLNGKEYKCKVSNKALPAPIEKTISKAKGQPREPQVYTLPPCRDELTKNQVSLWCLVKGFYPSDIAVEWESNGQPENNYKTTPPVLDSDGSFFLYSKLTVDKSRWQQGNVFSCSVMHEALHNHYTQKSLSLSPGGGSGGSISSGLLSGRSSGPIWELKKDVYVVELDWYPDAPGEMVVLTCDTPEEDGITWTLDQSSEVLGSGKTLTIQVKEFGDAGQYTCHKGGEVLSHSLLLLHKKEDGIWSTDILKDQKEPKNKTFLRCEAKNYSGRFTCWWLTTISTDLTFSVKSSRGSSDPQGVTCGAATLSAERVRGDNKEYEYSVECQEDSACPAAEESLPIEVMVDAVHKLKYENYTSSFFIRDIIKPDPPKNLQLKPLKNSRQVEVSWEYPDTWSTPHSYFSLTFSVQVQGKDNTEGRVFTDKTSATVICRKNASISVRAQDRYYSSSWSEWASVPCSGGGGSGGGGSGGGGSRNLPVATPDPGMFPCLHHSQNLLRAVSNMLQKARQTLEFYPCTSEEIDHEDITKDKTSTVEACLPLELTKNESCLNSRETSFITNGSCLASRKTSFMMALCLSSIYEDLKMYQVEFKTMNAKLLMDPKRQIFLDQNMLAVIDELMQALNFNSETVPQKSSLEEPDFYKTKIKLCILLHAFRIRAVTIDRVMSYLNAS
B4: AK667 (Fc fusion)
chain 1: [human IgG1 Fc with changes left out here]PGGSGPKIDACKRGDVTVKPSHVILLGSTVNITCSLKPRQGCFHYSRRNKLILYKFDRRINFHHGHSLNSQVTGLPLGTTLFVCKLACINSDEIQICGAEIFVGVAPEQPQNLSCIQKGEQGTVACTWERGRDTHLYTEYTLQLSGPKNLTWQKQCKDIYCDYLDFGINLTPESPESNFTAKVTAVNSLGSSSSLPSTFTFLDIVRPLPPWDIRIKFQKASVSRSTLYWRDEGLVLLNRLRYRPSNSRLWNMVNVTKAKGRHDLLDLKPFTEYEFQISSKLHLYKGSWSDWSESLRAQTPEE
chain 2: DKTHTCPPCPAPELLGGPSVFLFPPKPKDTLMISRTPEVTCVVVDVSHEDPEVKFNWYVDGVEVHNAKTKPREEQYASTYRVVSVLTVLHQDWLNGKEYKCKVSNKALPAPIEKTISKAKGQPREPQVYTLPPCRDELTKNQVSLWCLVKGFYPSDIAVEWESNGQPENNYKTTPPVLDSDGSFFLYSKLTVDKSRWQQGNVFSCSVMHEALHNHYTQKSLSLSPGGGSGGSMPYDLYHPSGPIWELKKDVYVVELDWYPDAPGEMVVLTCDTPEEDGITWTLDQSSEVLGSGKTLTIQVKEFGDAGQYTCHKGGEVLSHSLLLLHKKEDGIWSTDILKDQKEPKNKTFLRCEAKNYSGRFTCWWLTTISTDLTFSVKSSRGSSDPQGVTCGAATLSAERVRGDNKEYEYSVECQEDSACPAAEESLPIEVMVDAVHKLKYENYTSSFFIRDIIKPDPPKNLQLKPLKNSRQVEVSWEYPDTWSTPHSYFSLTFSVQVQGKDNTEGRVFTDKTSATVICRKNASISVRAQDRYYSSSWSEWASVPCSGGGGSGGGGSGGGGSRNLPVATPDPGMFPCLHHSQNLLRAVSNMLQKARQTLEFYPCTSEEIDHEDITKDKTSTVEACLPLELTKNESCLNSRETSFITNGSCLASRKTSFMMALCLSSIYEDLKMYQVEFKTMNAKLLMDPKRQIFLDQNMLAVIDELMQALNFNSETVPQKSSLEEPDFYKTKIKLCILLHAFRIRAVTIDRVMSYLNAS
B5: AK669 (Fc fusion)
chain 1: [human IgG1 Fc with changes left out here]PGGSGPKIDACKRGDVTVKPSHVILLGSTVNITCSLKPRQGCFHYSRRNKLILYKFDRRINFHHGHSLNSQVTGLPLGTTLFVCKLACINSDEIQICGAEIFVGVAPEQPQNLSCIQKGEQGTVACTWERGRDTHLYTEYTLQLSGPKNLTWQKQCKDIYCDYLDFGINLTPESPESNFTAKVTAVNSLGSSSSLPSTFTFLDIVRPLPPWDIRIKFQKASVSRSTLYWRDEGLVLLNRLRYRPSNSRLWNMVNVTKAKGRHDLLDLKPFTEYEFQISSKLHLYKGSWSDWSESLRAQTPEE
chain 2: DKTHTCPPCPAPELLGGPSVFLFPPKPKDTLMISRTPEVTCVVVDVSHEDPEVKFNWYVDGVEVHNAKTKPREEQYASTYRVVSVLTVLHQDWLNGKEYKCKVSNKALPAPIEKTISKAKGQPREPQVYTLPPCRDELTKNQVSLWCLVKGFYPSDIAVEWESNGQPENNYKTTPPVLDSDGSFFLYSKLTVDKSRWQQGNVFSCSVMHEALHNHYTQKSLSLSPGGGSGGSISSGLLSGRSSGPIWELKKDVYVVELDWYPDAPGEMVVLTCDTPEEDGITWTLDQSSEVLGSGKTLTIQVKEFGDAGQYTCHKGGEVLSHSLLLLHKKEDGIWSTDILKDQKEPKNKTFLRCEAKNYSGRFTCWWLTTISTDLTFSVKSSRGSSDPQGVTCGAATLSAERVRGDNKEYEYSVECQEDSACPAAEESLPIEVMVDAVHKLKYENYTSSFFIRDIIKPDPPKNLQLKPLKNSRQVEVSWEYPDTWSTPHSYFSLTFSVQVQGKDNTEGRVFTDKTSATVICRKNASISVRAQDRYYSSSWSEWASVPCSGGGGSGGGGSGGGGSRNLPVATPDPGMFPCLHHSQNLLRAVSNMLQKARQTLEFYPCTSEEIDHEDITKDKTSTVEACLPLELTKNESCLNSRETSFITNGSCLASRKTSFMMALCLSSIYEDLKMYQVEFKTMNAKLLMDPKRQIFLDQNMLAVIDELMQALNFNSETVPQKSSLEEPDFYKTKIKLCILLHAFRIRAVTIDRVMSYLNAS

These binders were tested against human IL-12 receptor (IL-12Rβ1 and IL-12Rβ2) on HEK-Blue IL-12 reporter cells (human, UniProt P42701 24-662; Q99665 24-862) (assay: cell-based or functional assay).
In the case of B1, the “Aklusion (Run 1)” value is reported as 56.1 fold, the “Aklusion (Run 2)” value is reported as 55.6 fold and the “Average Aklusion” value is reported as 55.8 fold. B2 was tested, and the “Aklusion (Run 1)” value was 30.1 fold, the “Aklusion (Run 2)” value was 35 fold and the “Average Aklusion” value was 32.5 fold. In the case of B3, the “Aklusion (Run 1)” value is reported as 48 fold, the “Aklusion (Run 2)” value is reported as 44.7 fold and the “Average Aklusion” value is reported as 46.3 fold. With B4 the “Aklusion (Run 1)” value was 126 fold, the “Aklusion (Run 2)” value was 82.6 fold and the “Average Aklusion” value was 104 fold. With B5 the “Aklusion (Run 1)” value was 36.3 fold, the “Aklusion (Run 2)” value was 48.4 fold and the “Average Aklusion” value was 42.4 fold.
